In PubChem BioAssay AID624296 (National Center for Advancing Translational Sciences (NCATS), 2012):
Screen size: about 350,000 compounds; about 9,900 (2.8%) were called active. Inconclusive means that the source gave no clear call. Such entries were picked first, then a sample of the others. The call rests on the fitted dose curve; in most records, active means well fitted activation curve with a large enough effect; inconclusive means small, poorly fitted or top-dose-only effect; inactive means no such curve, though single readings can be large or run the other way. Potencies of inconclusive entries are left out as doubtful fits.

Assay: A quantitative high throughput screen for small molecules that induce DNA re-replication in MCF 10a normal breast cells. Further: nearly all actives have a fitted effect of over 50% in size.
Conditions: MCF 10A DNA re-replication, Hoechst nuclear intensity, 48 h; series mostly up to 46.1 µM
Potency means the concentration at half of the fitted maximal effect; tags describe the fitted curve by direction and shape.

| SMILES | Potency |
| --- | --- |
| CC(C(=O)NC1C=CS(=O)(=O)C1)N1C(=O)/C(=C/c2cccc(Cl)c2)SC1=S (stereo not drawn) | inconclusive [activator, single point] |
| Nc1ccc(C(=O)N/N=C/c2cn(Cc3ccccc3F)c3ccccc23)cc1 | inactive |
| COc1ccc(-c2cn3c(C)c(C(=O)Nc4cc(NC(C)=O)ccc4OC)sc3n2)cc1 | inconclusive [activator, full curve] |
| CCC(c1nnnn1Cc1ccco1)N(Cc1ccccc1OC)Cc1cc2cc(C)ccc2[nH]c1=O (stereo not drawn) | inconclusive [activator, partial curve, poor fit] |
| O=C(CSc1ccccn1)Nc1ccc2[nH]c(=O)[nH]c2c1 | inactive |
| Cc1ccc(CN(C)C(=O)CCc2nc3sc4c(c3c(=O)[nH]2)CCCC4)o1 | inconclusive [activator, partial curve, poor fit] |
| CC1=CC(C)(C)N2C(=O)C(=O)c3cc(OC(=O)c4ccco4)cc1c32 | inconclusive [activator, single point] |
| O=C(N/N=C/c1cc(Br)c(O)c([N+](=O)[O-])c1)C(O)(c1ccccc1)c1ccccc1 | inconclusive [activator, partial curve, poor fit] |
| O=C1C(=O)c2c(C(=O)c3ccccc3)coc2-c2ccccc21 | active: 20.6 µM |
| COc1cc(CCN2C(=O)c3cccc4cccc(c34)C2=O)c(S(=O)(=O)N2CCCCCC2)cc1OC | inconclusive [activator, partial curve, poor fit] |
| Cc1ccc(C)c(NC(=S)NNc2ccc(F)cc2F)c1 | inconclusive [activator, single point] |
| Cc1cccc(NC(=O)c2ccc3nccnc3c2)c1C | inactive |
| Cc1ccc(/C=N/NC(=O)c2cc(C3CC3)nc3ccccc23)o1 | active: 5.8 µM |
| O=C(CC(c1ccccc1)c1ccccc1)Nc1ccc(Cl)cn1 | inconclusive [activator, single point] |
| Cc1nn(Cc2ccccc2Cl)c(C)c1NC(=O)/C=C/c1cnn(C)c1 | inactive |
| CCCCC[C@@H]1C=C(C(=O)O)[C@H](c2ccc(OC)c(OC)c2)N1S(=O)(=O)c1ccc(C)cc1 | inactive |
| CCN(CC)c1ccc(/C=N/NC(=O)c2ccoc2C)c(O)c1 | inconclusive [activator, single point] |
| CCC(C)(C)n1nnnc1CN1CCc2ccccc21 | inconclusive [activator, single point] |
| CCOC(=O)c1cnc2ccc(OCC)cc2c1NCCCN1CCOCC1 | inactive |
| CCOP(=O)(c1ccccc1)c1nc(-c2ccccc2C)oc1N1CCCCC1 (stereo not drawn) | inconclusive [activator, single point] |
| CCCC(C(=O)n1nc(C)cc1C)C(NS(=O)(=O)c1ccc(C)cc1)c1ccccc1 (stereo not drawn) | inconclusive [activator, partial curve, poor fit] |
| O=S(=O)(Nc1nc2c(s1)CCCC2)c1ccc2ccccc2c1 | inconclusive [activator, single point] |
| O=c1c2ccccc2oc2c1ccc1ccccc12 | inactive |

| SMILES | Potency |
| --- | --- |
| CCN(CC)CCCNC(=O)c1ccc(S(=O)(=O)Nc2ccc(C)c(C)c2)cc1 | inconclusive [activator, partial curve] |
| CCCn1c2c(c(=N)c3c1CCC3)CCCC2 | inconclusive [activator, partial curve, poor fit] |
| COc1ccc(C2=Cc3ccc(OC(C)=O)cc3OC2)cc1 | inconclusive [activator, partial curve] |
| Cc1ccccc1-c1noc(-c2ccc(O)cc2)n1 | inconclusive [activator, partial curve, poor fit] |
| CCOc1ccc2nc(N/C(N)=N/C(=S)Nc3ccc(OC)cc3)nc(C)c2c1 | inconclusive [activator, partial curve, poor fit] |
| CC(=O)N1CCOc2ccc(S(=O)(=O)N(C)c3cccc(C)c3)cc21 | inconclusive [activator, single point] |
| O=C(c1ccc(N2CCN(C(=O)c3ccc(F)c(F)c3)CC2)cc1)c1cccc(F)c1 | inconclusive [activator, partial curve, poor fit] |
| COc1ccc(-c2nnn(CC(=O)N(CC(=O)NC3CCCC3)Cc3ccco3)n2)cc1OC | inactive |
| O=C(CSC1=NCCS1)NCc1ccco1 | active: 23.1 µM |
| COc1cc(/C=C/c2cc(OC(C)=O)c3ccccc3n2)c(OC(C)=O)c([N+](=O)[O-])c1 | inconclusive [activator, single point] |
| COc1cc(NC(=O)C2CCC(CNc3c(N4CCCCC4)c(=O)c3=O)CC2)cc(OC)c1 (stereo not drawn) | inactive |
| CCOc1ccc(Br)cc1C1=NN(C(C)=O)C(c2ccc([N+](=O)[O-])s2)O1 (stereo not drawn) | inconclusive [activator, single point] |
| Cc1nc2nc(SCC(=O)NCc3ccco3)nn2c(C)c1Cc1ccccc1 | inconclusive [activator, single point] |
| CCn1c(CSc2nc3ccccc3s2)nnc1SCC(=O)OC(C)(C)C | inconclusive [activator, partial curve, poor fit] |
| c1ccc2c3c([nH]c2c1)-c1[nH]ncc1CC3 | inconclusive [activator, single point] |
| CCc1nc2ccccc2c(C(=O)Nc2ccc(C)cc2)c1C | inactive |
| O=C(NC(Cc1ccccc1)C(=O)O)/C(=C/c1ccc(Cl)cc1)NC(=O)c1ccco1 (stereo not drawn) | inconclusive [activator, single point] |
| CC(C)Cc1csc(NC(=O)c2ccc(F)cc2)c1C(=O)O | inconclusive [activator, single point] |
| COc1ccc([N+](=O)[O-])cc1N1C(=O)c2cccnc2C1=O | inconclusive [activator, partial curve, poor fit] |
| COC(=O)c1ccccc1NC(=O)COC(=O)C1CCCCC1 | inactive |
| CC1(C)SC(=S)N(NC(=O)Nc2cccc3ccccc23)C1N(O)C(=O)Nc1ccccc1 (stereo not drawn) | inconclusive [activator, single point] |
| COc1ccc(NC(=O)CN(C)C(=O)c2cc(-c3cccs3)nn2-c2ccccc2)cc1 | inconclusive [activator, partial curve, poor fit] |
| Cc1cc2c(cc1S(=O)(=O)Nc1ccc(F)cc1)n(C)c(=O)c(=O)n2C | inactive |

| SMILES | Potency |
| --- | --- |
| COc1ccc2[nH]c(C(=O)N/N=C/c3ccc(O)cc3O)cc2c1 | inconclusive [activator, partial curve, poor fit] |
| O=C(Nc1ccncc1)c1cncc(Br)c1 | inactive |
| C/C(=N\NC(=O)c1cccc(S(=O)(=O)Nc2cccc(Cl)c2)c1)c1cccs1 | inconclusive [activator, single point] |
| CC1CCCC(C)N1C(=O)CSc1nnc(C2CCCCC2)o1 (stereo not drawn) | inconclusive [activator, full curve] |
| Oc1c(CN2CCOCC2)cc(CN2CCOCC2)c(O)c1O | inactive |
| CCC(C)[C@H](NC(=O)Nc1ccc2c(c1)OCCO2)C(=O)O (stereo partly drawn) | inconclusive [activator, single point] |
| CC1=Nc2cc(C(=O)O)ccc2Sc2ccc(Br)cc21 | inconclusive [activator, single point] |
| COc1ccccc1N1CCN(C2CCCN(C(=O)CCc3c(C)noc3C)C2)CC1 (stereo not drawn) | inactive |
| COc1cc2c(-c3ccccc3)c(C)oc2cc1/C=N/NC(N)=S | inconclusive [activator, single point] |
| O=S(=O)(c1ccc2ccccc2c1)N(CC1CO1)c1ccccc1 (stereo not drawn) | inconclusive [activator, single point] |
| O=C(CS(=O)(=O)Cc1ccccc1)Nc1nnc(C2CCCCC2)s1 | inconclusive [activator, partial curve, poor fit] |
| Brc1ccc(CSc2nnc(Cc3c[nH]c4ccccc34)o2)cc1 | inconclusive [activator, single point] |
| CCN(CC)c1ccc(/C=N\N2CCN(Cc3ccc(C)cc3)CC2)cc1 | inconclusive [activator, single point] |
| COc1ccc(-c2nn(-c3ccccc3)cc2/C=N/O)cc1 | inconclusive [activator, single point] |
| Cc1cc(Br)ccc1NC(=O)c1cnc(N2CCN(c3ccccn3)CC2)c2ccccc12 | inconclusive [activator, single point] |
| CCN(CC)CCOc1ncnc2c1oc1ccccc12 | inconclusive [activator, partial curve, poor fit] |
| Cc1ccc(O)c(-c2cc(-c3cccc(F)c3)n[nH]2)c1 | active: 25.9 µM |
| CCCCOc1ccc(CSc2nnc(C)n2N)cc1[N+](=O)[O-] | inactive |
| Cc1cc(Cn2nc(C(=O)NCC3CC3)cc2-c2ccccc2)on1 | inconclusive [activator, full curve, poor fit] |
| CCC(C)(C)c1ccc(Oc2ccc(N)cc2)cc1 | active: 14.6 µM |
| O=C(COC(=O)c1ccco1)c1ccc2ccccc2c1 | inconclusive [activator, single point] |
| Cc1ccc2cc(CN(CCCO)S(=O)(=O)c3cccc4nsnc34)c(=O)[nH]c2c1 | inactive |
